Results on 29 compounds are retold here after PubChem BioAssay AID1745853 (National Center for Advancing Translational Sciences (NCATS), 2022).

Holding throughout (test): Primary Screen for Target Class Profiling of Small Molecule Inhibitors of Methyltransferases
Test [1] concerns the target Glycine N-methyltransferase (Homo sapiens) (UniProt Q14749). The conditions noted are these: purified enzyme, MTase-Glo SAH luminescence; measured here: GNMT inhibition; at 40 µM; stronger effect = lower value. The essentials:
(§1)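 Each enzyme was assayed with SAM and its substrate. SAH formation detected by MTase-Glo luminescence; single-point 40 uM screen[…].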

Test [2] addresses Guanidinoacetate N-methyltransferase (Homo sapiens) (UniProt Q14353). The conditions noted are these: purified enzyme, MTase-Glo SAH luminescence; measured here: GAMT inhibition; at 40 µM; stronger effect = lower value. The gist of the method: as §1
In test [3] the target is Histamine N-methyltransferase (Homo sapiens) (UniProt P50135). The conditions noted are these: purified enzyme, MTase-Glo SAH luminescence; measured here: HNMT inhibition; at 40 µM; stronger effect = lower value. The essentials: as §1
For test [4], the target named is Nicotinamide N-methyltransferase (Homo sapiens) (UniProt P40261). The conditions noted are these: purified enzyme, MTase-Glo SAH luminescence; measured here: NNMT inhibition; at 40 µM; stronger effect = lower value. The essentials:
as §1

Test [5] has as its target Phenylethanolamine N-methyltransferase (Homo sapiens) (UniProt P11086). Particulars: purified enzyme, MTase-Glo SAH luminescence; measured here: PNMT inhibition; at 40 µM; stronger effect = lower value. The essentials: as §1

Structures are written as SMILES. Several values for one entry are separate records, joined by “and”; a condition that tells them apart may be missing. Identical values can stand only once. Some of the results follow. The main result of the screen is listed elsewhere. These columns were measured beside it and carry no call.
% is scaled to controls: 0 for no effect and ±100 for the full control effect.

Regarding `CCc1ccccc1NC(=O)N1Cc2ccccc2-n2cccc2C1c1ccc(SC)cc1` (centres undefined), the activity change, negative = inhibition in test [1] was -2.13%; in test [2] it was 0%; in test [3], -2.76%; in test [4], -3.5%; in test [5], 1.47%.
For `COC(=O)CCNC(=O)N1Cc2ccccc2-n2cccc2C1c1ccc(Cl)cc1` (centres undefined), in that order: -4.25%, 4.49%, 6.7%, -2.08% and 8.84%.
For the compound `COc1cccc(CC(=O)N2CC[C@H]3C(=O)NCCCCCN(Cc4cccnc4)[C@@H]3C2)c1`, the activity change, negative = inhibition in test [1] was -4.38%; in test [2] it was -6.33%; in test [3], -8.71%; in test [4], -10.6%; in test [5] it was -28%.
For `CCC1c2cccn2-c2ccccc2CN1C(=O)NCc1cccc(OC)c1` (centres undefined), in that order: 0.876%, -0.431%, -6.47%, -8.32% and 0.476%.
The matching figures for `CC[C@H]1CN2CC[C@H]1C[C@@H]2CNCc1ccc(-c2ccccc2)cc1`: -9.79%, -8.04%, -60.6%, -19.5% and -30.3%.
The matching figures for `Cc1ccc(C)c(NC(=O)N2Cc3ccccc3-n3cccc3C2C)c1` (centres undefined): 3.92%, 0%, 3.33%, 0.454% and 6.34%.
Take `CN1CCC[C@@H]1Cc1c[nH]c2ccc(Nc3ncccc3[N+](=O)[O-])cc12`: the activity change, negative = inhibition in test [1] was -16.9% and -1.85%; in test [2] it was -0.072% and 1.4%; in test [3] it was -67.9% and -68.7%; in test [4], -6.74% and -15.7%; in test [5] it was 2.09% and -0.762%.
Take `Cc1ccccc1C1c2cccn2-c2ccccc2CN1C(=O)Nc1ccccc1F` (centres undefined): the activity change, negative = inhibition was 11.6% in test [1]; 1.12% in test [2]; 5.03% in test [3]; 4.43% in test [4]; -0.894% in test [5].
For `COc1cccc(CNC(=O)N2Cc3ccccc3-n3cccc3C2c2cccc(C)c2)c1` (centres undefined), in that order: 6.99%, 0%, 3.25%, 4.79% and 4.48%.
For `CCOc1ccccc1NC(=O)N1Cc2ccccc2-n2cccc2C1c1ccc(F)cc1` (centres undefined), in that order: 0.03%, 3.21%, 0.074%, -4.08% and 0.117%.
The matching figures for `C[C@H]1CN(Cc2ccc(CC(=O)N3CCC(Nc4cccc(F)c4)CC3)cc2)CCN1`: -9.44%, -12.8%, -3.08%, -25.1% and -6.58%.
For the compound `C[C@]12CCC(=O)C=C1CC[C@@H]1[C@@H]2[C@@H](O)C[C@]2(C)C(=O)CC[C@@H]12`, the activity change, negative = inhibition in test [1] was 2.75%; in test [2], 7.92%; in test [3], 8.99%; in test [4] it was -5.88%; in test [5], 4.07%.
For `C=C1[C@@H]2CC[C@@]3(C)[C@H](c4ccoc4)OC(=O)C[C@]13O[C@H]1CC(=O)C(C)(C)[C@H](C(OC(C)=O)C(=O)OC)[C@]12C` (some centres undefined), in that order: 4.91%, 4.65%, 7.16%, -12% and -2.93%.
The matching figures for `COC(=O)c1cccc(NC(=O)N2Cc3ccccc3-n3cccc3C2c2cccs2)c1` (centres undefined): 5.23%, 2.18%, 5.29%, -1.04% and 1.72%.
For `CCc1ccc(C2c3cccn3-c3ccccc3CN2C(=O)Nc2ccc(C)c(F)c2)cc1` (centres undefined), in that order: 9.29%, 4.56%, 1.35%, 2.98% and 6.14%.
On to `O=C(Nc1ccc2c(c1)OCCO2)N1Cc2ccccc2-n2cccc2C1c1ccc(F)cc1` (centres undefined), for which the activity change, negative = inhibition in test [1] was -2.38%; in test [2], 0%; in test [3], 4.99%; in test [4], 3.87%; in test [5], 6.95%.
As to `Cc1c(Cl)cccc1NC(=O)N1Cc2ccccc2-n2cccc2C1C(C)C` (centres undefined), the activity change, negative = inhibition in test [1] was found to be 1.27%; in test [2], 0%; in test [3], 4.84%; in test [4] it was 0.268%; in test [5] it was 10.8%.
As to `CCC(=O)CCCCC[C@@H]1NC(=O)[C@H]2CCCCN2C(=O)[C@H]([C@@H](C)CC)NC(=O)[C@H](Cc2cn(OC)c3ccccc23)NC1=O`, the activity change, negative = inhibition was -3.6% in test [1], 8.82% in test [3], -3.55% in test [4] and 13.8% in test [5].
Consider `CCN1CCCNCC12CCOCC2`, for which the activity change, negative = inhibition in test [1] is -0.118%; in test [2] it was -1.41%; in test [3] it was -0.228%; in test [4] it was 0.245%; in test [5], 0.395%.
For `CC(C)(C)c1o[nH]c(=O)c1CC(N)C(=O)O` (centres undefined), in that order: -4.58%, 7.58%, -0.909%, -0.703% and 9.06%.
The matching figures for `O=C1CCCN1CC#CCN1CCCC1`: 0.577%, 9.76%, 4.35%, -4.68% and 2.66%.
The matching figures for `COC1CC(OC2CCC3(C=O)C(CCC4C3CCC3(C)C(C5=CC(=O)OC5)CCC43O)C2)OC(C)C1O` (centres undefined): 4.66%, 7.69%, 10%, -4.53% and 6.22%.
As for `CO[C@H]1C[C@H](O[C@H]2CC[C@@]3(C)C(=CCC4C3CC[C@]3(C)[C@@H](C5=CC(=O)OC5)CC[C@]43O)C2)O[C@@H](C)[C@@H]1O[C@@H]1O[C@H](CO[C@@H]2O[C@H](CO)[C@@H](O)[C@H](O)[C@H]2O)[C@@H](O)[C@H](O)[C@H]1O` (some centres undefined), the activity change, negative = inhibition in test [1] is 4.6%; in test [2] it was 1.84%; in test [3] it was 8.55%; in test [4], -10.2%; in test [5], -2.23%.
The matching figures for `Cc1ccccc1C1c2cccn2-c2ccccc2CN1C(=O)NCc1ccccc1` (centres undefined): 16%, 1.95%, 6.47%, 9.75% and 10.1%.
As to `CCOc1ccc(NC(=O)N2Cc3ccccc3-n3cccc3C2C)cc1` (centres undefined), the activity change, negative = inhibition was 6.29% in test [1]; 0% in test [2]; -0.901% in test [3]; 2.91% in test [4]; 5.69% in test [5].
The matching figures for `C[C@]12N[C@H](Cc3ccccc31)c1ccccc12`: -13%, -1.4%, -1.89%, -10.6% and -1.21%.
For the compound `Cc1cccc(NC(=O)N2Cc3ccccc3-n3cccc3C2c2ccc(C(C)C)cc2)c1` (centres undefined), the activity change, negative = inhibition in test [1] was -1.77%; in test [2], 6.83%; in test [3], -2.2%; in test [4] it was -1.31%; in test [5], 0.232%.
The matching figures for `O=C(N[C@@H]1N=C(c2ccccc2F)c2cccc3c2N(CC3)C1=O)c1cc2ccccc2[nH]1`: -6.96%, -16.1%, -5.64%, -34% and -11.1%.
For `CCOC(=O)Cc1ccc(NC(=O)N2Cc3ccccc3-n3cccc3C2C)cc1` (centres undefined), in that order: 7.34%, 0.809%, -2.85%, 0.536% and 6.32%.
